Test results published in PubChem BioAssay (NCATS).
The shares of active, inactive and inconclusive entries below differ from those in the screen. Potencies of inconclusive entries are left out as doubtful fits. Active and inactive are the calls of the source. The call rests on the fitted dose curve; in most records, active means well fitted curve in the direction sought with a large enough effect; inconclusive means small, poorly fitted or top-dose-only effect, or another doubt; inactive means no such curve, though single readings can be large; an effect the other way counts as inactive or inconclusive.

Legend:
[1] = molecular target: Rap guanine nucleotide exchange factor 3 (Homo sapiens) (UniProt O95398); assay: Confirmatory qHTS for antagonist of cAMP-regulated guanine nucleotide exchange factor 3 (EPAC1) (AID 1645880); conditions: EPAC1 Rap1B-BODIPY-GDP exchange, fluorescence; activity, negative = inhibition: at 115 µM (top of the series); further: nearly all actives have a fitted effect of over 55% in size;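 on activity, negative = inhibition: plate controls were DMSO only for no effect and full effect of the ATA control for full effect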
Procedure, shortened: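 Released BODIPY-GDP fluoresces less than Rap1-bound BODIPY-GDP; the signal is followed at 480/540 nm at 5-min intervals over 30 min, after 5 min at room temperature. Reactions contain 100 nM EPAC1, 250 nM RAP1B-BODIPY-GDP and 50 uM GDP; results are normalized to ATA and DMSO.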

[2] = molecular target: Rap guanine nucleotide exchange factor 4 (Homo sapiens) (UniProt Q8WZA2); assay: Confirmatory qHTS for antagonist of cAMP-regulated guanine nucleotide exchange factor 4 (EPAC2) (AID 1645885); conditions: activity change, negative = inhibition: at 12.7 µM (top of the series) unless noted; further: nearly all actives have a fitted effect of over 25% in size; on activity change, negative = inhibition: on the % scale 0 is the no-effect control and ±100 the full control effect
[3] = molecular target: Rap guanine nucleotide exchange factor 3 (Homo sapiens) (UniProt O95398); assay: Counterscreen qHTS for agonist of cAMP-regulated guanine nucleotide exchange factor 3 (EPAC1) (AID 1645889); conditions: EPAC1 Rap1B-BODIPY-GDP exchange, fluorescence; activation: at 154 µM (top of the series) unless noted; further: nearly all actives have a fitted effect of over 40% in size; on activation: % of control where 0% means no effect
Procedure, shortened: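 Rap1B-BODIPY-GDP 250 nM + GDP 50 uM; cpds 7-pt, final 9.74 nM–152 uM (activator mode) or from 7.32 nM upwards (inhibitor mode); RT; FI 480/540 nm at 5 and 30 min, then ± cAMP, reread.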
Potency means the concentration at half of the fitted maximal effect; tags describe the fitted curve by direction and shape.

Chain of UniProt Q8WZA2 (Q8WZA2 whole entry, looked up): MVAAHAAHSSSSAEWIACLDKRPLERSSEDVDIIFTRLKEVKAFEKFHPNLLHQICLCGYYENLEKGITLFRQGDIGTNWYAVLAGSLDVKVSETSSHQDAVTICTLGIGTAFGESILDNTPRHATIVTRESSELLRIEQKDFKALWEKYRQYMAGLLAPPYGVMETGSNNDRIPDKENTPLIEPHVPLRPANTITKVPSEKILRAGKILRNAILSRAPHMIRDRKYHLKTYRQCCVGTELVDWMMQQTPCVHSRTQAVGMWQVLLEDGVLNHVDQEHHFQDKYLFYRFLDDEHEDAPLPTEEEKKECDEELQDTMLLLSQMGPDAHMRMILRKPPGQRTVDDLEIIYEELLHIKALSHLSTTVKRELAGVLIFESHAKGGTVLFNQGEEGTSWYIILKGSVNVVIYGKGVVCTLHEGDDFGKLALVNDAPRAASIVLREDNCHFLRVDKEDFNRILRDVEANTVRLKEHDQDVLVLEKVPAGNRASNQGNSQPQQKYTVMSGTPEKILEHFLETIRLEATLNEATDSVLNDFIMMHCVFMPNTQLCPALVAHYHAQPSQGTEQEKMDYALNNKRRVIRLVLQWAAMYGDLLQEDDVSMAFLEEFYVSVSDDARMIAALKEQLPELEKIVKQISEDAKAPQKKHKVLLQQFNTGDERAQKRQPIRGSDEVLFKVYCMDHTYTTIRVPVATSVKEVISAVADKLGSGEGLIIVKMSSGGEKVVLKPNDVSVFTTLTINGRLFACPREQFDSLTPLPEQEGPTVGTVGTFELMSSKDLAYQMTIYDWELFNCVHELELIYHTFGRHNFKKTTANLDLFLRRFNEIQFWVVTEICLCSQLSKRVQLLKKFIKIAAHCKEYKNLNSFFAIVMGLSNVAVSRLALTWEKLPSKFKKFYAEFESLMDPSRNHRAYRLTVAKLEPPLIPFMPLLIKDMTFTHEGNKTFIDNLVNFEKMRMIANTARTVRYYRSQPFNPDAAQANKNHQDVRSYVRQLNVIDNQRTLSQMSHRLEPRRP
Chain of UniProt O95398 (O95398 whole entry, looked up): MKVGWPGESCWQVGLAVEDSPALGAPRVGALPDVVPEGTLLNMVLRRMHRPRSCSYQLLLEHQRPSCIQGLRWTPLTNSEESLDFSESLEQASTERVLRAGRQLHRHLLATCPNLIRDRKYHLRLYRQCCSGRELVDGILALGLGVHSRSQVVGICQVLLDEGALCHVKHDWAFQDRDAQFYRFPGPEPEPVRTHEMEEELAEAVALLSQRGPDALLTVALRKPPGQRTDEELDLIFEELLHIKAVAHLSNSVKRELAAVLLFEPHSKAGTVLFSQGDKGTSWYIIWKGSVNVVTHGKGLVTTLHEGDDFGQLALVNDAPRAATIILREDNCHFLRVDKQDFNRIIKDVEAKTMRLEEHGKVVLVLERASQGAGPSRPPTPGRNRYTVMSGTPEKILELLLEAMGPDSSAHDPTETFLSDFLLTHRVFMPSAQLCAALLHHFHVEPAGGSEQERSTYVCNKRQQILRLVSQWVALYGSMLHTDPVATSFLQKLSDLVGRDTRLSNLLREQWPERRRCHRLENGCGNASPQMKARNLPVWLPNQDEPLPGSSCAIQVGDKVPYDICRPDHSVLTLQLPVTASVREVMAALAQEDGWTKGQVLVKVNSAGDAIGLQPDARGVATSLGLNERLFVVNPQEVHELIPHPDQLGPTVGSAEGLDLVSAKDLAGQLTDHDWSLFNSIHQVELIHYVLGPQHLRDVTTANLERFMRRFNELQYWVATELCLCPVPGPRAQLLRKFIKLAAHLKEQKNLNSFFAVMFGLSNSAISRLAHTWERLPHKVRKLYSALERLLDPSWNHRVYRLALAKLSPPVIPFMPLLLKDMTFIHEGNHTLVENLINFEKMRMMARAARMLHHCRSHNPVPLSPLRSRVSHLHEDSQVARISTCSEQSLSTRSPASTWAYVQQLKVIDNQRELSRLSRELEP

| SMILES | Potency [1] | Potency [2] | Potency [3] | activation [3] |
| --- | --- | --- | --- | --- |
| Cc1ccccc1-c1ccc(CN2C(C(C)C)C(=O)N(Cc3cn(CCC4OCCO4)nn3)CCS2(=O)=O)cc1 (stereo not drawn) | inconclusive [inhibitor, partial curve] | inconclusive [inhibitor, partial curve] | inactive |  |
| C/C(=N/NS(=O)(=O)c1ccc(C(C)(C)C)cc1)c1ccc2c(c1)OCO2 | inconclusive [inhibitor, partial curve, poor fit] | inconclusive [inhibitor, single point] | inconclusive [activator, partial curve, poor fit] |  |
| Cc1noc(NS(=O)(=O)c2ccc(NC(=O)CSc3nnc4c(n3)[nH]c3ccccc34)cc2)c1C | active: 23.9 µM | inactive | inactive |  |
| CCCS(=O)(=O)NC(=O)C1(C)CCN(C(=O)c2cccc(OC(F)(F)F)c2)C1 (stereo not drawn) | inactive | inconclusive [inhibitor, partial curve] | inactive |  |
| C=CCN1C(=O)/C(=C/c2ccc(OCC(=O)O)cc2)S/C1=N/c1nccs1 | inconclusive [inhibitor, partial curve, poor fit] | inactive |  | inactive: 14.3% [at 30.8 µM] |
| COc1ccc(N(C)C(=O)c2oc(=O)c3ccccc3c2-c2ccc(C)cc2)c(OC)c1 | inconclusive [inhibitor, partial curve, poor fit] | inconclusive [inhibitor, full curve] | inconclusive [activator, partial curve, poor fit] |  |
